Data taken from PubChem BioAssay AID894 (National Center for Advancing Translational Sciences (NCATS), 2007).
Screen size: about 150,000 compounds; about 6,500 (4.3%) were called active. Inconclusive means that the source gave no clear call. Such entries were picked first, then a sample of the others. Calls follow the shape of the dose curve; as a rule, active = well fitted inhibition curve with a large enough effect (not every such curve was filed as active); inconclusive = small, poorly fitted or top-dose-only effect, or another doubt; inactive = no such curve, though single readings can be large or run the other way. No potency is given beside an inconclusive call; the fits are too rough.

What follows are molecules tested against 15-hydroxyprostaglandin dehydrogenase [NAD(+)] (Homo sapiens) (UniProt P15428) (assay: qHTS Assay for Inhibitors of HPGD (15-Hydroxyprostaglandin Dehydrogenase)). Settings: purified HPGD, NADH fluorescence kinetic, PGE2 substrate; activity change, negative = inhibition: active compounds read low.
Outline: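 20 nM HPGD preincubated 15 min at room temperature with compound in 50 mM Tris-HCl pH 8, 0.01% Tween 20. Started with 1 mM NAD+ and 30 uM prostaglandin E2; NADH fluorescence (360/450 nm) read 5 times over 30-s intervals, last minus first.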
% is scaled to controls: 0 for no effect and ±100 for the full control effect; potency is read from the fitted curve at half-maximal effect; tags tell the direction and shape of the fitted curve.

Chain of UniProt P15428 (P15428 whole entry, looked up): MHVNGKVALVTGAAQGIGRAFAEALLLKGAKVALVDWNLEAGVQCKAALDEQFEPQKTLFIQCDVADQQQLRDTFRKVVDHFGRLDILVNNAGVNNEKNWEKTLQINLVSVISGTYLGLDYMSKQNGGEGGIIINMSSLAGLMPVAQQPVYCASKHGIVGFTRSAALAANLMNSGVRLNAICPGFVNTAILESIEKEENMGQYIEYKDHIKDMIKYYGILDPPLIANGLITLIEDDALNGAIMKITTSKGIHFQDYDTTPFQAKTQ

SMILES	Potency	activity change, negative = inhibition
Cc1ccc(-c2n[nH]c(=S)n2/N=C/c2cccs2)cc1	active: 12.6 µM	
N/N=c1\sc2ccccc2n1-c1ccccc1		inactive: -18.9%
O=C(CC(c1cccs1)S(=O)(=O)c1ccccc1)c1ccc(F)cc1 (centres undefined)		inactive: -0.967%
CSc1ccc(/C=N/NC(=O)c2ccc(C)c(C)c2)cc1	inconclusive [inhibitor, partial curve]	
COc1cc(OC)c2c(OC)cccc2n1	inconclusive [inhibitor, partial curve]	
COc1ccc(CNc2nc3c(c(C(F)(F)F)n2)CCCCC3)cc1	inconclusive [inhibitor, partial curve]	
CCOc1cc(CNCCSc2nnnn2C)cc(Br)c1OCc1ccccc1F		inactive: -28%
CC1=C(C(=O)O)N2C(=O)[C@@H](NC(=O)[C@H](N)c3ccccc3)[C@H]2SC1	inconclusive [inhibitor, single point]	
CCCOc1ccc(NCC(=O)Nc2ccc(C)cc2C)cc1		inactive: -1.6%
Cc1ccccc1Cn1c2ccccc2c2cnn(CC(=O)N3CCN(c4ccccc4)CC3)c(=O)c21	inconclusive [inhibitor, single point]	
Cc1ccc(-c2csc3ncnc(Nc4ccc(N5CCOCC5)cc4)c23)cc1	inconclusive [inhibitor, partial curve]	
O=C(CCCNC(=O)/C(=C/c1ccccc1F)NC(=O)c1ccccc1)OCc1ccccc1		inactive: -17.8%
CCOC(=O)C1=C(C)N(C)C(C)=C(C(=O)OCC)C1c1ccc(Cl)cc1	inconclusive [inhibitor, partial curve]	
Cc1ccc(-n2nc(C)c3c(-c4cccs4)c(C#N)c(N)nc32)cc1	inconclusive [inhibitor, partial curve]	
Cc1ccc(S(=O)(=O)c2c(N)n(CC3CCOC3)c3nc4ccccc4nc23)cc1 (centres undefined)	inconclusive [inhibitor, partial curve]	
O=C(Nc1nc(N2C(=O)c3ccccc3C2=O)n(-c2ccccc2)n1)c1ccc(Cl)cc1		inactive: -4.59%
CN(Cc1nc(-c2cccnc2)no1)S(=O)(=O)c1ccc2ccccc2c1		inactive: -28.5%
CCCCCC(=O)Nc1nc(C)c(-c2csc(Nc3ccccc3OC)n2)s1	inconclusive [inhibitor, partial curve]	
COc1ccc(C(=O)CN2CCN(c3ccc(F)cc3)CC2)cc1OC		inactive: -0.794%
Nc1cccnc1Sc1cccc(Cl)c1	inconclusive [inhibitor, partial curve]	
COC(=O)CNC(=O)[C@@]1(C)C=C[C@@H](Cc2ccccc2)N1C(=O)OC		inactive: -14%
Cc1ccc2nc(NC(=O)c3ccc4c(c3)OCO4)sc2c1	inconclusive [inhibitor, partial curve]	
COc1ccc(NC(=O)N2c3ccc(OC)cc3C(C)=CC2(C)C)cc1	inconclusive [inhibitor, partial curve]	
CCCSc1nc2c(c(=O)[nH]c(=O)n2C)n1Cc1ccc(C)cc1		inactive: -7.07%
O=C(NNC(=S)Nc1ccc(F)cc1)C1CC1c1ccc(Cl)cc1 (centres undefined)	active: 15.8 µM	

SMILES	Potency	activity change, negative = inhibition
CCCNC(=O)C1CCN(c2nc(C)cc(C)n2)CC1	inconclusive [inhibitor, partial curve]	
O=C1O/C(=C/c2ccccc2)c2ccccc21	inconclusive [inhibitor, partial curve]	
Oc1ccc(CNc2ccccc2)c2cccnc12		inactive: -3.44%
O=c1c2cc(N3CCOCC3)ccc2[nH]c(=S)n1Cc1ccccn1	inconclusive [inhibitor, partial curve]	
O=C(CN1CCOCC1)Nc1ccc(-c2nc3ccccc3[nH]2)cc1	inconclusive [inhibitor, single point]	
NNc1nc(-c2ccccc2)nc2sc3c(c12)CCCC3	inconclusive [inhibitor, partial curve]	
C/C(Cn1nnc([N+](=O)[O-])n1)=N\NC(=O)c1ccc(Cl)c(Cl)c1		inactive: -8.01%
CCOc1ccc(N2C(=O)CC(NCCc3ccc(S(N)(=O)=O)cc3)C2=O)cc1 (centres undefined)		inactive: 1.79%
O=[N+]([O-])c1cc(-c2ncccn2)c([N+](=O)[O-])s1	active: 28.2 µM	
Cc1c(C(=O)COC(C)(C)C)[nH]c2ccccc12	active: 4.47 µM	
Clc1cccc(CSc2nnc(-c3cccnc3)n2Cc2ccco2)c1		inactive: -17.4%
N#C/C(=C\c1ccc(OC(=O)c2ccc(Cl)s2)cc1)c1nc2ccccc2[nH]1		inactive: -19.1%
Cn1c(SCc2nnc(-c3ccccc3Br)o2)nc2sc3c(c2c1=O)CCC3	active: 8.91 µM	
CCOc1cc(NC(=O)c2ccco2)c(OCC)cc1NC(=O)CCc1ccccc1OC	inconclusive [inhibitor, partial curve]	
Cn1cccc1Cc1nnc(SCC(=O)NCc2ccccc2Cl)n1-c1ccc(F)cc1		inactive: -4.51%
O=C(c1ccccc1)c1cc(-c2ccccc2)on1	inconclusive [inhibitor, single point]	
CN(C)c1ccc(N=Cc2nc(-c3ccccc3)oc2OC(=O)c2cccc(Cl)c2)cc1	inconclusive [inhibitor, partial curve]	
CC1CCc2c(sc(N)c2C(N)=O)C1 (centres undefined)	inconclusive [inhibitor, partial curve]	
O=C(CSc1ncn[nH]1)NC1CC2CCC1C2 (centres undefined)	active: 15.8 µM	
O=C(Nc1cc(C(F)(F)F)ccc1Cl)c1cc2nc3c(c(C(F)(F)F)n2n1)CCCC3	inconclusive [inhibitor, partial curve]	
CCOC(=O)c1cc(=O)n2nc(-c3ccccc3F)nc2s1	inconclusive [inhibitor, partial curve]	
Cc1csc2nc(=O)c3ccccc3n12	inconclusive [inhibitor, partial curve]	
Nc1ccc2nc(-c3ccccc3)sc2c1	inconclusive [inhibitor, partial curve]	
Cn1c(=O)c(-c2ccccc2)nc2cnc(Oc3ccccc3)nc21		inactive: -17.6%
Cc1ccc(-c2cc3ccccc3nc2N2CCCC2)cc1	inconclusive [inhibitor, partial curve]	

SMILES	Potency	activity change, negative = inhibition
COC(=O)COc1ccc2c(-c3ccc(OC)cc3)cc(=O)oc2c1	inconclusive [inhibitor, partial curve]	
COc1ccc(-n2ncc3c(=O)n(CC(=O)N4CCCc5ccccc54)cnc32)cc1	inconclusive [inhibitor, single point]	
Cc1c(C(=O)NCc2ccco2)cccc1[N+](=O)[O-]	inconclusive [inhibitor, single point]	
COc1cc(OC)cc(C(=O)n2nc(C)cc2C)c1		inactive: -9.65%
COc1cc(O)c(C(=O)c2ccccc2)cc1O	active: 4.47 µM	
Oc1ccc(Cl)cc1-c1cc(-c2ccco2)[nH]n1	active: 25.1 µM	
O=C(NC(=S)N(Cc1ccccc1)c1ccccn1)C1CCCCC1	inconclusive [inhibitor, partial curve]	
CC(NC(=O)CC(c1ccccc1)c1cc(Cl)ccc1O)c1ccccc1 (centres undefined)	inconclusive [inhibitor, partial curve, poor fit]	
CCn1c(SCC(=O)Nc2cc(C)on2)nnc1-c1ccccc1		inactive: 0.58%
CCOc1ccc(NC(=O)NCCN2C(C)CCCC2C)cc1 (centres undefined)	inconclusive [inhibitor, single point]	
c1ccc(-c2nc(N3CCNCC3)nc3ccccc23)cc1	inconclusive [inhibitor, partial curve]	
COc1ccc(Cc2nnc(NC(=O)c3ccco3)s2)cc1	inconclusive [inhibitor, partial curve]	
Cc1nn2c(NCCOCCO)c3c(nc2c1-c1ccccc1)CCCC3		inactive: -15.2%
COc1ccc(-c2ccc(-c3noc(-c4ccccc4OC)n3)c(OC)n2)cc1	inconclusive [inhibitor, partial curve]	
CCc1cc2ccc(C)cc2nc1SCC(=O)N1CCN(C(=O)c2ccco2)CC1	inconclusive [inhibitor, single point]	
COC(=O)C(C)Sc1n[nH]c(=S)s1 (centres undefined)	active: 25.1 µM	
O=C(/C=C\c1ccc2c(c1)OCO2)Nc1c2c(nn1-c1ccc(Cl)cc1)CSC2		inactive: -9.23%
CC1CCN(CCc2nc3cc(NC(=O)Nc4ccccc4)ccc3n2C)CC1		inactive: -7.25%
C=CCOC(=O)c1cc(-c2ccc(/C=C3\C(=O)NC(=O)C(C#N)=C3C)o2)ccc1Cl	active: 15.8 µM	
COc1ccccc1-c1ccc(/C=C2/C=C(C)OC2=O)o1	inconclusive [inhibitor, partial curve]	
Clc1ccc(-c2nn3c(C4COc5ccccc5O4)nnc3s2)cc1 (centres undefined)	active: 12.6 µM	
CN(C)C(=O)N1CCN(C(=O)N(C)C)CC1		inactive: -8.73%
COCCCNC(=O)c1c(NC(=O)c2cccs2)sc2c1CCCC2	inconclusive [inhibitor, partial curve]	
Cc1cc(SCC(N)=O)nc(SCC(=O)c2ccccc2)n1	inconclusive [inhibitor, partial curve]	
